Experimental data reported in patent publication US20100074867A1, “P1-NONEPIMERIZABLE KETOAMIDE INHIBITORS OF HCV NS3 PROTEASE” (Schering Corporation Patent Department, K-6-1; 1990, priority 2007, published 2010).

Target: HCV NS3/NS4A protease (strain 1a) (Hepatitis C virus genotype 1a, UniProt P27958)
Assay: HCV continuous spectrophotometric protease assay
Format: biochemical
Details: ranges of Ki* values in nM, read-out: Ki*
Description: Spectrophotometric Assay Spectrophotometric assay for the HCV serine protease can be performed on the inventive compounds by following the procedure described by R. Zhang et al, Analytical Biochemistry, 270 (1999) 268-275, the disclosure of which, is incorporated herein by reference. The assay based on the proteolysis of chromogenic ester substrates is suitable for the continuous monitoring of HCV NS3 protease activity. The substrates are derived from the P side of the NS5A-NS5B junction sequence (Ac-DTEDVVX(Nva), where X=A or P) whose C-terminal carboxyl groups are esterified with one of four different chromophoric alcohols (3- or 4-nitrophenol, 7-hydroxy-4-methyl-coumarin, or 4-phenylazophenol). Illustrated below are the synthesis, characterization and application of these novel spectrophotometric ester substrates to high throughput screening and detailed kinetic evaluation of HCV NS3 protease inhibitors.
• Materials: Chemical reagents for assay related buffers are obtained from Sigma Chemical Company (St. Louis, Mo.). Reagents for peptide synthesis were from Aldrich Chemicals, Novabiochem (San Diego, Calif.), Applied Biosystems (Foster City, Calif.) and Perseptive Biosystems (Framingham, Mass.). Peptides are synthesized manually or on an automated ABI model 431A synthesizer (from Applied Biosystems). UV/VIS Spectrometer model LAMBDA 12 was from Perkin Elmer (Norwalk, Conn.) and 96-well UV plates were obtained from Corning (Corning, N.Y.). The prewarming block can be from USA Scientific (Ocala, Fla.) and the 96-well plate vortexer is from Labline Instruments (Melrose Park, Ill.). A Spectramax Plus microtiter plate reader with monochrometer is obtained from Molecular Devices (Sunnyvale, Calif.). […] Protein concentrations are determined by the Biorad dye method using recombinant HCV protease standards previously quantified by amino acid analysis. Prior to assay initiation, the enzyme storage buffer (50 mM sodium phosphate pH 8.0, 300 mM NaCl, 10% glycerol, 0.05% lauryl maltoside and 10 mM DTT) is exchanged for the assay buffer (25 mM MOPS pH 6.5, 300 mM NaCl, 10% glycerol, 0.05% lauryl maltoside, 5 μM EDTA and 5 μM DTT) utilizing a Biorad Bio-Spin P-6 prepacked column. Substrate Synthesis and Purification: The synthesis of the substrates is done as reported by R. Zhang et al, (ibid.) and is initiated by anchoring Fmoc-Nva-OH to 2-chlorotrityl chloride resin using a standard protocol (K. Barlos et al, Int. J. Pept. Protein Res., 37 (1991), 513-520). The peptides are subsequently assembled, using Fmoc chemistry, either manually or on an automatic ABI model 431 peptide synthesizer. […] The combined filtrate and DCM wash is evaporated azeotropically (or repeatedly extracted by aqueous Na2CO3 solution) to remove the acid used in cleavage. The DCM phase is dried over Na2SO4 and evaporated.
The ester substrates are assembled using standard acid-alcohol coupling procedures (K. Holmber et al, Acta Chem. Scand., B33 (1979) 410-412). Peptide fragments are dissolved in anhydrous pyridine (30-60 mg/ml) to which 10 molar equivalents of chromophore and a catalytic amount (0.1 eq.) of para-toluenesulfonic acid (pTSA) were added. Dicyclohexylcarbodiimide (DCC, 3 eq.) is added to initiate the coupling reactions. Product formation is monitored by HPLC and can be found to be complete following 12-72 hour reaction at room temperature. Pyridine solvent is evaporated under vacuum and further removed by azeotropic evaporation with toluene. The peptide ester is deprotected with 95% TFA in DCM for two hours and extracted three times with anhydrous ethyl ether to remove excess chromophore. The deprotected substrate is purified by reversed phase HPLC on a C3 or C8 column with a 30% to 60% acetonitrile gradient (using six column volumes).

Row | Ki [nM] | SMILES
1 | 1000 to 5000 | CCNC(=O)C(=O)[C@]1(NC(=O)[C@@H]2[C@@H]3[C@H](CN2C(=O)[C@@H](NC(=O)NC2(CS(=O)(=O)C(C)(C)C)CCCCC2)C2CCCCC2)C3(C)C)C[C@H]1CC [46Z]
2 | 1000 to 5000 | CC[C@@H]1C[C@@]1(NC(=O)[C@@H]1[C@@H]2[C@H](CN1C(=O)[C@@H](NC(=O)NC1(CS(=O)(=O)C(C)(C)C)CCCCC1)C1CCCCC1)C2(C)C)C(=O)C(=O)NCC1CC1 [48Z]
3 | < 500 | CCNC(=O)C(=O)[C@@]1(NC(=O)[C@@H]2[C@@H]3[C@H](CN2C(=O)[C@@H](NC(=O)NC2(CS(=O)(=O)C(C)(C)C)CCCCC2)C(C)(C)C)C3(C)C)C[C@@H]1CC [49Z]
4 | 500 to 1000 | CC[C@H]1C[C@]1(NC(=O)[C@@H]1[C@@H]2[C@H](CN1C(=O)[C@@H](NC(=O)NC1(CS(=O)(=O)C(C)(C)C)CCCCC1)C(C)(C)C)C2(C)C)C(=O)C(=O)NCC1CC1 [51Z]
5 | 5000 to 10000 | CC[C@@H]1C[C@@]1(NC(=O)[C@@H]1[C@@H]2[C@H](CN1C(=O)[C@@H](NC(=O)NC1(CS(=O)(=O)C(C)(C)C)CCCCC1)C(C)(C)C)C2(C)C)C(=O)C(=O)NCC1CC1 [52Z]
6 | < 500 | CCNC(=O)C(=O)[C@]1(NC(=O)[C@@H]2[C@@H]3[C@H](CN2C(=O)[C@@H](NC(=O)N[C@H](CN2C(=O)CC(C)(C)CC2=O)C(C)(C)C)C(C)(C)C)C3(C)C)C[C@H]1CC [56Z]
7 | < 500 | CC[C@H]1C[C@]1(NC(=O)[C@@H]1[C@@H]2[C@H](CN1C(=O)[C@@H](NC(=O)NC1([C@@H](C)S(=O)(=O)C(C)(C)C)CCCCC1)C(C)(C)C)C2(C)C)C(=O)C(=O)NCC1CC1 [59Z]

The next lines start with the molecule.

Row | SMILES | Ki [nM]
8 | CC[C@@H]1CC1(NC(=O)[C@@H]1[C@@H]2[C@H](CN1C(=O)[C@@H](NC(=O)NC1([C@@H](C)S(=O)(=O)C(C)(C)C)CCCCC1)C1Cc3ccccc3C1)C2(C)C)C(=O)C(=O)NC1CC1 (stereo partly drawn) [42Z] | 5000 to 10000
9 | CC[C@H]1C[C@]1(NC(=O)[C@@H]1[C@@H]2[C@H](CN1C(=O)[C@@H](NC(=O)NC1(CS(=O)(=O)C(C)(C)C)CCCCC1)C1CCCCC1)C2(C)C)C(=O)C(=O)NC1CC1 [43Z] | 500 to 1000
10 | CC[C@@H]1C[C@@]1(NC(=O)[C@@H]1[C@@H]2[C@H](CN1C(=O)[C@@H](NC(=O)NC1(CS(=O)(=O)C(C)(C)C)CCCCC1)C1CCCCC1)C2(C)C)C(=O)C(=O)NC1CC1 [44Z] | 1000 to 5000
11 | CCNC(=O)C(=O)[C@@]1(NC(=O)[C@@H]2[C@@H]3[C@H](CN2C(=O)[C@@H](NC(=O)NC2(CS(=O)(=O)C(C)(C)C)CCCCC2)C2CCCCC2)C3(C)C)C[C@@H]1CC [45Z] | < 500
12 | CC[C@H]1C[C@]1(NC(=O)[C@@H]1[C@@H]2[C@H](CN1C(=O)[C@@H](NC(=O)NC1(CS(=O)(=O)C(C)(C)C)CCCCC1)C1CCCCC1)C2(C)C)C(=O)C(=O)NCC1CC1 [47Z] | 500 to 1000
13 | CCNC(=O)C(=O)[C@]1(NC(=O)[C@@H]2[C@@H]3[C@H](CN2C(=O)[C@@H](NC(=O)NC2(CS(=O)(=O)C(C)(C)C)CCCCC2)C(C)(C)C)C3(C)C)C[C@H]1CC [50Z] | 1000 to 5000
14 | CC[C@H]1C[C@]1(NC(=O)[C@@H]1[C@@H]2[C@H](CN1C(=O)[C@@H](NC(=O)N[C@H](CN1C(=O)CC(C)(C)CC1=O)C(C)(C)C)C(C)(C)C)C2(C)C)C(=O)C(=O)NCC1CC1 [53Z] | < 500
15 | CC[C@@H]1C[C@@]1(NC(=O)[C@@H]1[C@@H]2[C@H](CN1C(=O)[C@@H](NC(=O)N[C@H](CN1C(=O)CC(C)(C)CC1=O)C(C)(C)C)C(C)(C)C)C2(C)C)C(=O)C(=O)NCC1CC1 [54Z] | 1000 to 5000
16 | CCNC(=O)C(=O)[C@@]1(NC(=O)[C@@H]2[C@@H]3[C@H](CN2C(=O)[C@@H](NC(=O)N[C@H](CN2C(=O)CC(C)(C)CC2=O)C(C)(C)C)C(C)(C)C)C3(C)C)C[C@@H]1CC [55Z] | < 500
17 | CC[C@H]1C[C@]1(NC(=O)[C@@H]1[C@@H]2[C@H](CN1C(=O)[C@@H](NC(=O)NC1([C@H](C)S(=O)(=O)C(C)(C)C)CCCCC1)C(C)(C)C)C2(C)C)C(=O)C(=O)NCC1CC1 [57Z] | < 500
18 | CC[C@@H]1C[C@@]1(NC(=O)[C@@H]1[C@@H]2[C@H](CN1C(=O)[C@@H](NC(=O)NC1([C@H](C)S(=O)(=O)C(C)(C)C)CCCCC1)C(C)(C)C)C2(C)C)C(=O)C(=O)NCC1CC1 [58Z] | 1000 to 5000
